Measured values reported in publication PMC12136788.
Some of the results follow.

T1: UNK ZnF1-3 (human, UniProt Q9C0B0 31-174)
T1 sequence: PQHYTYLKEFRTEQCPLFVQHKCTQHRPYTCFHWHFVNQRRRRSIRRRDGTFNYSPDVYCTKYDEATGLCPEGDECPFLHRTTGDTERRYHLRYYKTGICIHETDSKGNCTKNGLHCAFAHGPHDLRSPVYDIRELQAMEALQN

B1: chr4:94236435:94236436:-_ENSMUSG00000028577_ENSMUST00000107107|mus_hu|FALSE|FALSE (ssRNA)
RNA: GGGAGUUCUACAGUCCGACGAUCCUGGGACAUCAUGAGUUUUUGUCCUGCCUGGCCAACAAAACAAUUGCAAAAAGUCCUGAGAGCAAGCAGCUGGUUUGCUGGCUUUCCUUUAGGGUUCAGAAGAUUGAUAAGAUGACUGCUCAACAGAGGAUUGAGCAUCA
B2: 80332580_80332700_4901_3pUTR_ENSG00000156052_ENST00000286548|human|control|control (ssRNA)
RNA: GGGAGUUCUACAGUCCGACGAUCGUACAAAAAAGUAAAUUGCCCUUUAGCUGAAUUACCUUUUUAAAAUAGGCCUGCUAGUUAAUCUACCAAAAAAAAAAAAAUACAAGUUUUACGUGUUCUUCAGAUUCCUUUUGUAGUUGUCAACAGAGGAUUGAGCAUCA
B3: chr4:144460044:144460045:+_ENSG00000153147_ENST00000283131|hu_mus|hu_hu_hu_mus_False|8_18 (ssRNA)
RNA: GGGAGUUCUACAGUCCGACGAUCACGGUCCAUAGCCUGAAGAUCAACUUGCGGAUUCCAAUCUGAGUCAUAUAAAAUGACUACAUCAGCAGUUGCAAGAUUGAUGCCCAGACCACCAGCACGCGUGCUUAACAUGAAUACAAACAACAGAGGAUUGAGCAUCA
B4: 129792989_129793109_2214_3pUTR_ENSG00000077684_ENST00000452328|human|control|control (ssRNA)
RNA: GGGAGUUCUACAGUCCGACGAUCGUGUUGUAGGCACUUUGACUGCAGUCUGAUUAUAGUUUACUUUGAUUAGGGAGCCAUUGCACUUGGGCACUAUCUCCUUCCUUGUGCCAGGUGCUGACUGCCCCACUCCAGGGGAGGUGGCAACAGAGGAUUGAGCAUCA
B5: chr12:96663167:96663168:+_ENSG00000111145_ENST00000228741|hu_hu|motif|central (ssRNA)
RNA: GGGAGUUCUACAGUCCGACGAUCAUGGAUCUAGAGCAUACAUUAAUCCCAGUUUCCAAAGGAAAAGAAAGAAUCAGAUCGGUAGUCAUUUAAAUAUUUCCAAUCAGCAUUUACGUAAACAAGUAUACUAAAAAUAGUAGUUUUCAACAGAGGAUUGAGCAUCA
B6: 85455326_85465482_71_3pUTR_ENSMUSG00000042523_ENSMUST00000123491|mouse|control|control (ssRNA)
RNA: GGGAGUUCUACAGUCCGACGAUCUCUGGGCAUACAGCUUGAUUUCUUUGGCAUCAGAUGGCUUCUGACCAGUCUUUUCUUCCCAUCUGGACAGGGCUUCUUUGAUCGUUGUUGCUUUUGCCAUUCCGGCGGUUGCUACCGUCACAACAGAGGAUUGAGCAUCA
B7: 148668463_148675568_217_3pUTR_ENSMUSG00000025511_ENSMUST00000117634|mouse|control|control (ssRNA)
RNA: GGGAGUUCUACAGUCCGACGAUCCGGUGACGAUGAGCAGGUUGGCAGCCGACAAGGAUGGAAAUGAGGAUGAUAAGGUGGCAAAGUUUCCCUGUGUGGCAGCCAACCAGAUGCCAACACCCAGGACACCACAGCCACCCAGCCCAACAGAGGAUUGAGCAUCA
B8: chr1:39494447:39494448:+_ENSG00000168653_ENST00000372967|hu_mus|hu_hu_hu_mus_False|28_68 (ssRNA)
RNA: GGGAGUUCUACAGUCCGACGAUCGCACCGAGCGGCGUUCUUAUAGGGCUGUUCUGCGCUUAGGAACGUCAACCAUCGGUCCAGGCUGAUGCCCAGCUUUUUCUGUAUGUCCAAGAAAGGCAUGGCUCUGCAGUGCCCUUGUCACAACAGAGGAUUGAGCAUCA
B9: chr4:24557968:24557969:-_ENSG00000109606_ENST00000336812|hu_hu|FALSE|FALSE (ssRNA)
RNA: GGGAGUUCUACAGUCCGACGAUCACCCAUUAGAAUAUCUGUAGCCAGUGUCCUCUCAUGAGCCUCAUCAAGAAUUAUUACACCAUAACGCUCCAGGAGGGGAUCAUUCAUAGCUUCACGAAGUAACAUCCCAUCAGUCAUAUACAACAGAGGAUUGAGCAUCA
B10: 49403031_49403976_2306_CDS_ENSMUSG00000069495_ENSMUST00000092123|mouse|control|control (ssRNA)
RNA: GGGAGUUCUACAGUCCGACGAUCGGUGGAAUAUAAUGUUUUAGAGGGUCCUGAAGGCUGGACAACACCAUUCAUAUUGUUGUGGCCAGUGUUCUGUUCCUUGGAUCCCUCACUGCGACUUGGAACAGGAGCACUGACCACUGCCAACAGAGGAUUGAGCAUCA
B11: chr4:95690885:95690886:+_ENSMUSG00000028572_ENSMUST00000156910|mus_mus|mus_mus_mus_hu_False|38_68 (ssRNA)
RNA: GGGAGUUCUACAGUCCGACGAUCUUUAGAAAAUGUUAAAUACCAUGCUAAAAUAUUUUCAAAGGCUAGUCUUAUUUUACCAGAAGUCACAGGCAAGCAGACACCAUAAGAAUAUAUGAAAAUGAAACUCAACAAUAUAACUGUCAACAGAGGAUUGAGCAUCA
B12: 8170459_8170715_3274_CDS_ENSG00000178921_ENST00000314666|human|control|control (ssRNA)
RNA: GGGAGUUCUACAGUCCGACGAUCGAUGGCGACUCGGGGGCUGGGACCACCAGGCUCACGGGGCACGGAGGCUUUGGGAAAGGUGGGGGGCAGGCAAUAGCUGGGCCCCAUCCGCUCCCUCAGGCCCCGUUCCUCCUCUGCCACCAACAGAGGAUUGAGCAUCA
B13: chr5:24101842:24101843:-_ENSMUSG00000028949_ENSMUST00000030791|mus_mus|motif|central (ssRNA)
RNA: GGGAGUUCUACAGUCCGACGAUCCUCCUGGAUGUCCACCCGCUUCCGCAUGAUGGUUUGAUCCAGUUUCCUCUCAAAUGCGGGGAGGUCCAUGUAAGCCUGGGACUCGGGUACCAGCUCCCGAAUCCUUUGAGGGAGGAUUUUCAACAGAGGAUUGAGCAUCA
B14: chr11:77376804:77376805:-_ENSG00000048649_ENST00000308488|hu_mus|FALSE|FALSE (ssRNA)
RNA: GGGAGUUCUACAGUCCGACGAUCUGGAUUUUAAUAGAAGUAUAUAAUGGCCAAAGGCCAAAACUACAUUCAAACCCUGCUAAUAUAUCCAGGCCGAUAGAAAAUUCACACACACACACACACACACACACACACACACACACACAACAGAGGAUUGAGCAUCA
B15: 104374691_104376647_723_CDS_ENSG00000139372_ENST00000392872|human|control|control (ssRNA)
RNA: GGGAGUUCUACAGUCCGACGAUCCCCUGGUAGAGUGUGAUCAUCCAUAUGGUUCAGCUGGACCUCACUGAGCCCUGACAUAAACAAACACUUCCAAAAAUGGUUUCCAGGUCCAGGGUAAUGAUGCCCUUUGUAAGCAGCCAUCAACAGAGGAUUGAGCAUCA
B16: chrX:71549762:71549763:+_ENSMUSG00000019087_ENSMUST00000019231|mus_mus|mus_mus_mus_hu_False|1_108 (ssRNA)
RNA: GGGAGUUCUACAGUCCGACGAUCAAAGUGUACCACUUCUUAUUGUUAGCACAACAUCACCAGAAAACGAUAACGACAGCCAAGCAGGACAGACAGUUAAGUAGUACUUCCACACUCCCAAACUCAGGGAGCCCUAUAGUUCAUCAACAGAGGAUUGAGCAUCA
B17: chr13:48664549:48664550:-_ENSG00000136146_ENST00000378586|hu_hu|motif|central (ssRNA)
RNA: GGGAGUUCUACAGUCCGACGAUCUGGUUUUCCUCUCCAGCCUGUAACAACUUUUGGUUUCUUGAAAUUGCCAGCAUUUCGGUAAGUUCCCACUCGAAGACGCAGCCAUUUUCCCCAGAGUCCCGCCACCGGCGCACGCGCAGACAACAGAGGAUUGAGCAUCA
B18: 56809451_56811643_435_CDS_ENSMUSG00000028431_ENSMUST00000030140|mouse|control|control (ssRNA)
RNA: GGGAGUUCUACAGUCCGACGAUCUUCCAGCUGCUGUGUGCUGAGAUUGCAGACUAUGACGUCCCCAGAGGCGGUGGCCACACACACAGAUUCCUGAUCCAGCAAGUCCUGAAUACCCACAAUGCAGCCACUUCCAUCCUCUGGCAACAGAGGAUUGAGCAUCA
B19: chr14:54894545:54894546:-_ENSG00000100528_ENST00000216416|hu_mus|FALSE|FALSE (ssRNA)
RNA: GGGAGUUCUACAGUCCGACGAUCCUUCAUUGGUGGCGUUUUGCAUGCACUUAACUGGACCGAUUCUUCUGUGUUGUUCUAAGAGCUCACCAGAACAUAGAUCAUGCCGUAUAGGUAGUAAAAAAACGCUAGAAGGUAAAAAGCCAACAGAGGAUUGAGCAUCA
B20: chr4:40210074:40210075:-_ENSMUSG00000036822_ENSMUST00000042575|mus_hu|FALSE|FALSE (ssRNA)
RNA: GGGAGUUCUACAGUCCGACGAUCUAUAGGACACUUAGAAUCAGGAGAUGCAUCAGCUGGUACUGUCUGUUGCAAUUUGCUAGUGCCAGCUUUAGGUGAAAAGUUGUCCAUUUUAAAUUCCUUAGCAGCUGAUGCCAUUAUCAUCAACAGAGGAUUGAGCAUCA
B21: 107987409_107987529_3908_3pUTR_ENSMUSG00000029461_ENSMUST00000049053|mouse|control|control (ssRNA)
RNA: GGGAGUUCUACAGUCCGACGAUCGGGAGGGGAAAAGGUGUGGACAAGGUGUCUGUGUAUGGUGAUGCCAGUGUGGCAGCUCAUGGUCAUGUGCACACCCCUCAUCCUAUGGUGAGGGGACCCUUCCAGCUCUGGCCUCCUCUGCAACAGAGGAUUGAGCAUCA
B22: 44657012_44657132_1561_3pUTR_ENSMUSG00000002028_ENSMUST00000002095|mouse|control|control (ssRNA)
RNA: GGGAGUUCUACAGUCCGACGAUCUUGCUCUAGAUCCAAAGCUUCUCUCAGACAUCGAAUACCGUCUGCUUCUCCUAUCAUUACUCUCAUUUUCUGGGGACUGGGAAAUAGGCAGUGGAGUAUGAACUUCGGGGGUAUUACUGCCAACAGAGGAUUGAGCAUCA

Target: T1, UNK ZnF1-3
Experiment: nsRBNS (natural sequence RNA bind-n-seq); RBNS binding buffer (assumed for nsRBNS): 25 mM Tris pH 7.5, 150 mM KCl, 3 mM MgCl2, 0.01% Triton X-100, 500 ug/ml BSA, 20 U/ml SUPERase-In, 4 C; UNK is unkempt and MSI1 is Musashi-1; names of the RNAs are library labels; protein concentration not given here; high values mean tight binding

Row | Binder | binding signal [enrichment R]
1 | B1 | 1.79
2 | B2 | 1.62
3 | B3 | 1.05
4 | B4 | 0.514
5 | B5 | 0.912
6 | B6 | 0.373
7 | B7 | 1.58
8 | B8 | 0.521
9 | B9 | 1.07
10 | B10 | 0.658
11 | B11 | 1.45
12 | B12 | 0.502
13 | B13 | 0.582
14 | B14 | 2.31
15 | B15 | 0.869
16 | B16 | 1.43
17 | B17 | 1.32
18 | B18 | 0.813
19 | B19 | 1.42
20 | B20 | 0.556
21 | B21 | 0.862
22 | B22 | 1.02
